Our source for the activity change, negative = inhibition values is PubChem BioAssay AID1745853 (National Center for Advancing Translational Sciences (NCATS), 2022).

Holding throughout (assay): Primary Screen for Target Class Profiling of Small Molecule Inhibitors of Methyltransferases
The target of experiment [1] is Glycine N-methyltransferase (Homo sapiens) (UniProt Q14749). The settings on record: purified enzyme, MTase-Glo SAH luminescence; measured here: GNMT inhibition; at 40 µM; stronger effect = lower value. An outline of the steps:
(§1)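 Each enzyme was reacted with SAM and its substrate, with compounds tested once at 40 uM; SAH formed was read by MTase-Glo luminescence.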

For experiment [2], the target named is Guanidinoacetate N-methyltransferase (Homo sapiens) (UniProt Q14353). The note with it: purified enzyme, MTase-Glo SAH luminescence; measured here: GAMT inhibition; at 40 µM; stronger effect = lower value. An outline of the steps:
as §1

Experiment [3] concerns the target Histamine N-methyltransferase (Homo sapiens) (UniProt P50135). The settings on record: purified enzyme, MTase-Glo SAH luminescence; measured here: HNMT inhibition; at 40 µM; stronger effect = lower value. An outline of the steps:
as §1

For experiment [4], the target named is Nicotinamide N-methyltransferase (Homo sapiens) (UniProt P40261). The note with it: purified enzyme, MTase-Glo SAH luminescence; measured here: NNMT inhibition; at 40 µM; stronger effect = lower value. In a few lines:
as §1

Experiment [5] concerns the target Phenylethanolamine N-methyltransferase (Homo sapiens) (UniProt P11086). The settings on record: purified enzyme, MTase-Glo SAH luminescence; measured here: PNMT inhibition; at 40 µM; stronger effect = lower value. An outline of the steps: as §1

Some of the results follow. These are further read-outs of the screen, such as a control signal, another cell line or another target. No call is given for them.
On the % scale 0 is the no-effect control and ±100 the full control effect.

In the case of `CCOCCCN1C(=O)c2cc3sccc3n2CC1(C)C(=O)NC1CCCCCC1` (centres undefined), the activity change, negative = inhibition in experiment [1] is -4.39%; in experiment [2], 1.97%; in experiment [3], -8.11%; in experiment [4], 2.69%; in experiment [5] it was -2.31%.

In the case of `CC(O)/C=C/C1(O)C(C)C(O[C@@H]2O[C@H](CO)[C@@H](O)[C@H](O)[C@H]2O)C(O)CC1(C)C` (some centres undefined), the activity change, negative = inhibition is -1.97% in experiment [1]; -11.4% in experiment [2]; -4.43% in experiment [3]; -22% in experiment [4]; -2.35% in experiment [5].

`O=c1onc2n1-c1cc(Br)ccc1OC2`: the activity change, negative = inhibition is -6.31% in experiment [1]; 3.29% in experiment [2]; 3.5% in experiment [3]; -6.82% in experiment [4]; -0.51% in experiment [5].

For `COC(=O)c1ccc(N2CCN(C)CC2)c(NC(=O)c2cccc(OC)c2)c1`, the activity change, negative = inhibition was -1.27% in experiment [1]; 4.85% in experiment [2]; 2.21% in experiment [3]; -14.9% in experiment [4]; -6.63% in experiment [5].

Turning to `c1cc(CN(CCN2CCCCC2)CC2CCCN(C3CCCC3)C2)c2nonc2c1` (centres undefined), the activity change, negative = inhibition in experiment [1] was 0.46%; in experiment [2], 0.945%; in experiment [3], -18.4%; in experiment [4] it was -4.98%; in experiment [5], -0.576%.

Regarding `COC[C@@H]1CN(S(=O)(=O)c2cnc[nH]2)C[C@H]1c1ccccn1`, the activity change, negative = inhibition is -4.42% in experiment [1]; 18.3% in experiment [2]; -3.27% in experiment [3]; -7.28% in experiment [4]; 1.15% in experiment [5].

Consider `COc1cc(C2CC(=O)Nc3c2cc(Br)c2ccccc32)cc(OC)c1OC` (centres undefined), for which the activity change, negative = inhibition in experiment [1] was -3.7%; in experiment [2], -5.4%; in experiment [3], 7.04%; in experiment [4], -14.2%; in experiment [5], -0.406%.

Take `Cc1ccc(CNC(=O)N2CCC(c3nc(CCOCC4CCOCC4)no3)C2)cc1` (centres undefined): the activity change, negative = inhibition in experiment [1] is -1.73%; in experiment [2], -7.46%; in experiment [3], -1.35%; in experiment [4] it was -1.76%; in experiment [5] it was -3.23%.

For the compound `O=C(Cn1nc2n(CCc3ccccc3)c(=O)c3ccccc3n2c1=O)Nc1ccc2c(c1)OCCO2`, the activity change, negative = inhibition in experiment [1] was 3.31%; in experiment [2], 5.48%; in experiment [3], 2.24%; in experiment [4] it was -0.114%; in experiment [5] it was 2.84%.

In the case of `CCCN1C(=O)c2c(C(=O)NCc3ccccc3OC)ncn2CC1(C)C(=O)NC1CCCC1` (centres undefined), the activity change, negative = inhibition in experiment [1] was -1.74%; in experiment [2], 0%; in experiment [3] it was 3.16%; in experiment [4], -1.29%; in experiment [5], 3.98%.

Turning to `CCc1nc2c(c(-c3ccc(Cl)cc3)n1)CN([S+](=O)([O-])c1c(C)noc1C)CC2`, the activity change, negative = inhibition was -3.46% in experiment [1]; -4.37% in experiment [2]; -1.76% in experiment [3]; -8.01% in experiment [4]; -30.8% in experiment [5].

With `Cn1cnc(C(=O)N2CCC3(CC2)CC(N(Cc2ccccc2)C2CC2)CCO3)c1` (centres undefined), the activity change, negative = inhibition in experiment [1] is -3.89%; in experiment [2], -0.733%; in experiment [3], -1.13%; in experiment [4] it was -7.24%; in experiment [5] it was -1.67%.

Turning to `CCCSCCCNC(=O)c1cc2n(n1)CC(C)(C(=O)NCc1ccc(C)cc1)N(C)C2=O` (centres undefined), the activity change, negative = inhibition in experiment [1] is 6.9%; in experiment [2], 1.09%; in experiment [3] it was 7.99%; in experiment [4], 6.34%; in experiment [5], 5.79%.

As for `CC(C)CCn1c(=O)c2ccccc2n2c(CCC(=O)NCc3ccc(Cl)cc3)nnc12`, the activity change, negative = inhibition in experiment [1] is -7.31%; in experiment [2] it was 3.39%; in experiment [3], 1.85%; in experiment [4], 1.24%; in experiment [5], -4.03%.

Consider `CC(C)Cn1c(=O)c2ccc(C(=O)NC(C)C)cc2n2c(=O)n(CC(=O)NC3CCCCC3)nc12`, for which the activity change, negative = inhibition is 1.9% in experiment [1]; 5.92% in experiment [2]; 2.81% in experiment [3]; 0.099% in experiment [4]; 0.614% in experiment [5].

Regarding `CCOC(=O)NCCCC(=O)NCCc1ccccc1`, the activity change, negative = inhibition in experiment [1] was determined as 3.43%; in experiment [3] it was 20.4%; in experiment [4] it was 0.041%; in experiment [5] it was 7.54%.

Turning to `O=C(O)c1n[nH]c2c1C[C@H]1C[C@@H]21`, the activity change, negative = inhibition is -0.067% in experiment [1]; 2.16% in experiment [2]; 9.56% in experiment [3]; -8.51% in experiment [4]; 3.25% in experiment [5].

With `O=C(c1ccc2c(=O)nc3c(-c4ccccc4F)n[nH]n3c2c1)N1CCN(c2ccccn2)CC1`, the activity change, negative = inhibition is -12.4% in experiment [1]; 1.15% in experiment [2]; 3.14% in experiment [3]; -1.75% in experiment [4]; 2.96% in experiment [5].

In the case of `O=C(c1cn(CCC2CCCCN2)nn1)N1CCc2nc[nH]c(=O)c2CC1` (centres undefined), the activity change, negative = inhibition in experiment [1] is -0.278%; in experiment [2] it was -0.969%; in experiment [3], -8.01%; in experiment [4] it was -0.875%; in experiment [5], -6.7%.

Consider `O=C(Nc1ccc2ncnc(N3CCCCC3)c2c1)c1cc(F)ccc1F`, for which the activity change, negative = inhibition in experiment [1] is -91.6%; in experiment [2] it was -89.1%; in experiment [3], -92.3%; in experiment [4], -90.6%; in experiment [5], -80.4%.

As to `CCOC(=O)c1cc2n(n1)CC(C)(C(=O)NC1CCCC1)N(c1cccc(Cl)c1)C2=O` (centres undefined), the activity change, negative = inhibition in experiment [1] is 5.01%; in experiment [2], 4.45%; in experiment [3], 3.79%; in experiment [4] it was 4%; in experiment [5] it was 4.07%.

On to `O=C(CCc1nnc2n(Cc3ccc(F)cc3)c(=O)c3ccccc3n12)NCCN1CCOCC1`, for which the activity change, negative = inhibition in experiment [1] is -6.5%; in experiment [2], 0%; in experiment [3] it was 3.54%; in experiment [4] it was 7%; in experiment [5], -0.994%.

Regarding `COCCCNc1nc2c(-c3cccc(C)c3)nnn2c2ccc(Cl)cc12`, the activity change, negative = inhibition in experiment [1] was -3.85%; in experiment [2] it was 3.56%; in experiment [3], 2.7%; in experiment [4], -7.36%; in experiment [5], -2.94%.

In the case of `Cc1ccc(/C(=C\CN2CCCC2)c2ccccn2)cc1`, the activity change, negative = inhibition in experiment [1] is 4.41%; in experiment [2], 12.5%; in experiment [3] it was 13.3%; in experiment [4] it was -7%; in experiment [5], -0.795%.

For `Cc1ccc(Cn2c(=O)c3ccccc3n3c(-c4ccccc4C)nnc23)cc1`, the activity change, negative = inhibition in experiment [1] is -5.2%; in experiment [2], 1.71%; in experiment [3], 7.09%; in experiment [4], -3.78%; in experiment [5] it was 1.02%.

Consider `COc1ccc(NC(=O)CSc2nnc3n(Cc4ccc(F)cc4)c(=O)c4ccccc4n23)cc1`, for which the activity change, negative = inhibition in experiment [1] was 1.11%; in experiment [2], 0%; in experiment [3], 10.4%; in experiment [4], 2.65%; in experiment [5] it was 3.6%.

Consider `C=C[C@H]1[C@H](O[C@@H]2O[C@H](CO)[C@@H](O)[C@H](O)[C@H]2O)OC=C(C(=O)OC)[C@H]1CCO`, for which the activity change, negative = inhibition is 2.48% in experiment [1]; 7.01% in experiment [2]; 3.43% in experiment [3]; -5.53% in experiment [4]; 6.49% in experiment [5].

In the case of `CCc1cc2c(cc3n2CC(C)(C(=O)NC2CCCCC2)N(CCCN2CCCCC2)C3=O)s1` (centres undefined), the activity change, negative = inhibition in experiment [1] amounted to 4%; in experiment [2], 0%; in experiment [3] it was 10%; in experiment [4] it was 10.5%; in experiment [5] it was 3.73%.

Turning to `O=C(c1ccnc(CC2CC(=O)N(c3ccccc3)C2)c1)N1CCCCC1` (centres undefined), the activity change, negative = inhibition in experiment [1] was -2.06%; in experiment [2] it was -3.94%; in experiment [3], -16.8%; in experiment [4] it was -10.2%; in experiment [5] it was 7.68%.
